± gives the standard deviation of the averaged measurements. Some of the results follow.
What follows are sequences tested on PfAP2-I AP2 domain 3 (GST-tagged) (assay: gcPBM binding intensity (ln(normalized median fluorescence intensity)); higher = stronger DNA binding).
Procedure, shortened: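 Binding of GST-tagged P. falciparum DNA-binding domains, expressed in E. coli and used at about 25 μg on average, was carried out for 1 h in 1× PBS containing 1% milk, 0.2 mg/ml BSA, 0.5% salmon testes DNA and 0.03% Triton X-100. The target was an Agilent 4 × 180k array of primer-extended double-stranded 36-bp intergenic genomic probes plus negative controls, read with Alexa488 anti-GST antibody at 488 nm. Binding intensity is the highest Masliner-normalised natural-log median intensity across replicate spots of either probe orientation.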

Sequence | gcPBM binding intensity (ln)
AAAACAAATTAAAATCGTACAATTATAATGTTAATG [XGTACX_site180] | 7.5 ± 0.41
TATAAAATAAAAATTATATATTTTAAATGGATACAA [TGCATGCA_negctrl_site284] | 7.59 ± 0.59
ATGCACATTTATAAAAGTACATGTATGTAATATGTT [XGTACX_site830] | 7.84 ± 0.5
ATTTAAATGAAAAAATGTACAAAAAGATTTAAACTC [XGTACX_site1489] | 8.13 ± 0.49
TATAATAAATCATATGCATGTTGAAAAAAAAAAAAA [TGCATGCA_site923] | 8.1 ± 0.75
ATTTGAGAGTTAACAAAATATTTGGCCATCTTTTAT [XGTACX_negctrl_site447] | 7.54 ± 0.42
AATGTCCTTATTTGCACACACACATATAAGAAATTT [CACACA_site3186] | 9.91 ± 0.23
AACTCATAGCGGTGTGCACACAAAAAATTAAAAAAA [CACACA_site3033] | 9.9 ± 0.2
TCATAAATGAAACACACACACACATCTGGATACCCC [CACACA_site3332] | 8.26 ± 0.38
ATTATATATATAAAGTGTACAAAAAAAAAAAAAAAA [XGTACX_site3134] | 8.18 ± 0.54
AATCAATATAAATAAAATTTTTAATTTTAACCCTAA [GTGCAC_negctrl_site266] | 7.36 ± 0.38
GAGATGACATTACACAGTACCCAGGAAATCTACGGA [XGTACX_site4931] | 7.54 ± 0.71
TATATATTGTTATATACACACATGTATATAAAAAAT [CACACA_site3221] | 7.7 ± 0.47
CAAAAAAGGTCCCGGAGTACATATATAATTTTTTTT [XGTACX_site458] | 7.92 ± 0.33
ATTGTCCTAAATACTACAAAGTAGATCTTTAATATT [CACACA_negctrl_site1795] | 7.53 ± 0.4
TAATTCCATAAGTAAACACACAAATGCCAAAATTTT [CACACA_site3205] | 7.89 ± 0.63
GTGCGTGCGTGTACTTAACACACATAATATGTATTT [CACACA_site8336] | 8.85 ± 0.085
TCCATATGCAAACTGGTGCACAAGTAGCTTTTATAT | 11.15 ± 0.028
TTTCTTTTTCTAGTTATTTTTACTTATCCCTAATTT [TGCATGCA_negctrl_site460] | 7.71 ± 0.6
TTATAATTAAGATATAATCAATAATAACAAATGAAC [CACACA_negctrl_site1690] | 7.82 ± 0.44
TTCTTTGCTTCTGTTTCACACATTTTTAAAATAAGC [CACACA_site4741] | 8.54 ± 0.59
TTAAGCCGCAATATGGGTACATAGGAAGAAGGGGAA [XGTACX_site8397] | 8.01 ± 0.51

Sequence | gcPBM binding intensity (ln)
ATATATAAAAATATTTGTACATATAGTTATATTTAT [XGTACX_site6114] | 7.61 ± 0.4
TTAAAGGGAATGTATACACACGTTTCTCTATGTTAT [CACACA_site4793] | 7.49 ± 0.81
TTTTTCCCCCTTTTTTTGATTTTTATCTTAATTCTA [TGCATGCA_negctrl_site287] | 7.67 ± 0.28
ATATAATAACAAAAGGTGCGCATTAAGACAAAAAAA | 10.08 ± 0.028
TATTATATTGTTCATTTACACTTTCATTTTAAAAAA [CACACA_negctrl_site260] | 8.05 ± 0.54
AAGGATTATTTTAATCGTACATGTGTAAATAATATA [XGTACX_site6177] | 7.87 ± 0.49
TTTTTTCATTTTTTATTTTTTTATTTTTTACATATT [GTGCAC_negctrl_site137] | 7.76 ± 0.49
TTTTTTAAAATAATAGGTACACATAAAAAAAAAAAA [XGTACX_site2517] | 8.2 ± 0.56
TATATATATAGACACACACACATATAAATAAATAAA [CACACA_site444] | 8.55 ± 0.23
TTATTTATTTTCATATGTACTTATTTATAGAGGTTG [XGTACX_site5599] | 8.04 ± 0.38
CATACATACATACATACACACATATATATATATATG [CACACA_site1995] | 8.88 ± 0.51
AAAAAAAAATAATATACACACTCCAATATAAAAAAT [CACACA_site3958] | 7.65 ± 0.51
CGCACTAAAAAACACACACACACACCCATATATATA [CACACA_site4152] | 8.31 ± 0.69
TGTGTATTATAAACATGTACATAAAAATACGATATT [XGTACX_site3643] | 8.51 ± 0.071
TGTTATTAAAATATAGTGCATAATTAACCATTATAA [GTGCAC_site9594] | 10.8 ± 0.65
CACACGCACGGACACACACACATATAAAATCTATAT [CACACA_site6428] | 8.675 ± 0.064
TACTTATATACACATGTATATTATATATATAATATA [XGTACX_negctrl_site335] | 7.89 ± 0.35
TAATAATATATTTGTAGTACACAATTTTTTATAACT [XGTACX_site3951] | 8.035 ± 0.007
TACTATAACAGACATACACACAAAAAAAAAAAAAAA [CACACA_site538] | 8.03 ± 0.73
ATTTTTTTTTTTTTTTTTTTTTTTTTTTAATCTGGA [CACACA_negctrl_site1347] | 7.56 ± 0.38
ATATTTAACAGGTTAAAAATATAAACAAATAAATAA [CACACA_negctrl_site907] | 7.58 ± 0.7
GAGAGGATAGTTCACAGTACTCAGTAACTCTACGGA [XGTACX_site4875] | 7.47 ± 0.8

Reference: the supplement of paper PMC11417369
